This note sets out measurements from the supplement of paper PMC11417369.

± gives the standard deviation of the averaged measurements. The list shows a part of the results.

This assay relates to PfAP2-G AP2 domain (GST-tagged). The assay can be described thus: gcPBM binding intensity (ln(normalized median fluorescence intensity)); higher = stronger DNA binding. In short, it runs like this: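 Binding intensity is defined as the maximum Masliner-normalised natural-log median intensity across replicate spots for either probe orientation. It was measured on an Agilent 4 × 180k array of primer-extended double-stranded 36-bp intergenic genomic probes and negative controls, to which GST-tagged P. falciparum DNA-binding domains made in E. coli were applied for 1 h in 1× PBS with 1% milk, 0.2 mg/ml BSA, 0.5% salmon testes DNA and 0.03% Triton X-100. Detection was by Alexa488 anti-GST antibody and scanning at 488 nm.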
In the case of “TTTTAATTATATTATGCACACACAATTGGAAAAAAA [CACACA_site8598]”, the “gcPBM binding intensity (ln)” value came to 10.2 ± 0.23.
In the case of “AACAAATAAGATAAATGACTTAACAAAAGAAAAAAG [CACACA_negctrl_site1409]” it was 9.765 ± 0.035; in that of “AAAAAAAAAAAAAAAAGTACAGACGTCAAAAAAAAA [XGTACX_site4817]”, 11.6 ± 0.76.
In the case of “TAATATATAAGTATTTGTACATATTCATTCATCTAT [XGTACX_site2935]” it was 10.8 ± 0.41; in that of “TTTTTTTTTTTTTTTTTTTTTTTTGGGTCCCATACA [CACACA_negctrl_site913]”, 11.1 ± 0.99; in that of “GTAAAAAATATGAATACACACATAAAGGAAATAACA [CACACA_site1997]”, 10.25 ± 0.042.
In the case of “AAAAAAAAAAAATTCACACACATATAAAAAATTAAG [CACACA_site728]” it was 9.905 ± 0.007; in that of “TAAATATATAAATACACACAAACATACATATATATA [CACACA_site4050]”, 10 ± 0.21.
Take “ATATAAAAATATATTAATATAAATAAATGGACATAT [XGTACX_negctrl_site488]”: the “gcPBM binding intensity (ln)” value was determined as 10.6 ± 0.56.
On to “GTCACATTGTTATATTGTACAAATGTCGTTCTTTTT [XGTACX_site8098]”, for which the “gcPBM binding intensity (ln)” value is 10.7 ± 0.4.
As for “CACTATCAATATATATGTACATATATATATATATAT [XGTACX_site7854]”, the “gcPBM binding intensity (ln)” value was 11.3 ± 0.72.
In the case of “TTTTTTTTTTTTTTTTTTTTTTTTAAATGCTTCTAA [TGCATGCA_negctrl_site253]” it was 9.46 ± 0.35; in that of “CTTATACATTATTAACGTACATGTTATATGAATAAC [XGTACX_site5752]”, 11.3 ± 0.9; in that of “AACATTATAGGACACACACACACATATATATATATA [CACACA_site4721]”, 10.9 ± 0.61.
For “GAGTAAAAATTAAAATGTACATATTATATATATTTA [XGTACX_site1319]”, the “gcPBM binding intensity (ln)” value was found to be 10.9 ± 0.39.
In the case of “TAATAAATAAGACACACACACATATATATATATTAT [CACACA_site1389]” it was 10.01 ± 0.042; in that of “TTTTAAGATATAAATTAATACTTATATATATAGATA [CACACA_negctrl_site22]”, 9.695 ± 0.078; in that of “ATGAATGTCCCAAGATGTACAATTATATATAACACA [XGTACX_site4702]”, 11.1 ± 0.75.
Take “AAATCCTTATTTTTTTGTACGTAATATTTTATATGG [XGTACX_site1530]”: the “gcPBM binding intensity (ln)” value stood at 11.3 ± 0.67.
In the case of “TATTTTTTAACACAACGTACATATAAAAAATATTTA [XGTACX_site6025]” it was 11.1 ± 0.72; in that of “TACAAATATATATGCACACACATATATGTATATGTG [CACACA_site3075]”, 10.5 ± 0.22.
In the case of “TTAGATATAATATATACACACCAACGAACGAAGAAA [CACACA_site4763]” it was 10.3 ± 0.29; in that of “ATAATTATTAATATAGTGCATTGGCATAATAATATA [GTGCAC_site9810]”, 10.1 ± 0.2.
For “TTATACAACAAGAAAATTATAAAATGTAACATATAT [GTGCAC_negctrl_site406]”, the “gcPBM binding intensity (ln)” value was 9.9 ± 0.18.
Turning to “ATATTAATATAATGTGCATGTTCAATGATCTTTTTA [TGCATGCA_site22]”, the “gcPBM binding intensity (ln)” value was 9.9 ± 0.014.
Take “CAACTTATTAAAAGTCGTACAAATGGGAAGAAGGAA [XGTACX_site6325]”: the “gcPBM binding intensity (ln)” value turned out to be 11.5 ± 0.81.
In the case of “TGTGCGGAAATAAGTGCACACATAGATATCTGTATT [CACACA_site5935]” it was 10.5 ± 0.36.
Turning to “ATATATATATAGTACGCACACATAGTTGTACATTAA [CACACA_site2787]”, the “gcPBM binding intensity (ln)” value is 12 ± 1.3.
In the case of “CGTATGAGTAAATACACACCCACGTATATATATAAA [CACACA_site5728]” it was 10.3 ± 0.31; in that of “AGTAAATAACACAAATATGAATGAAAAAAAAAATAT [GTGCAC_negctrl_site235]”, 9.94 ± 0.14.
As to “ATATATAAAAAAGCTAGTACACAAAAATATATAATG [XGTACX_site3001]”, the “gcPBM binding intensity (ln)” value is 11.4 ± 0.6.
In the case of “AAAAAAATTTATTAAAGTACTAGATAATCATATAAA [XGTACX_site1455]” it was 10.8 ± 0.54; in that of “TTCTTTTCTCTTTTAATCATATTATATAAATGAATA [CACACA_negctrl_site820]”, 9.83 ± 0.16; in that of “ATTGCATTTGTAGATAATACAATATGGATTGTTATA [CACACA_negctrl_site1749]”, 9.75 ± 0.042.
In the case of “GGATATATTATATGTACACACACATATAAGGGATTA [CACACA_site7884]”, the “gcPBM binding intensity (ln)” value was determined as 11.4 ± 0.93.
With “AGAATAATATAATAAAGTACAAACCTATCTAACTAC [XGTACX_site5477]”, the “gcPBM binding intensity (ln)” value was found to be 11.2 ± 0.51.
In the case of “ATTATAAATAAATATTGTACTTATATGATCTATTTG [XGTACX_site3820]” it was 11.2 ± 0.87.
As for “CCTTTCACATATAATACATGCATTATTATATATGAA [TGCATGCA_site287]”, the “gcPBM binding intensity (ln)” value amounted to 9.96 ± 0.12.
In the case of “AAAAATTTTATATTCACACACATATTTATATTTATA [CACACA_site6439]” it was 9.885 ± 0.021; in that of “ATTTATTTATTTTCATGTACATATGTAAATCAATAA [XGTACX_site3886]”, 11.1 ± 0.71; in that of “TATATAATATAATGTAGTACATGTTTTATTTTTTAC [XGTACX_site7735]”, 11.5 ± 0.79.
In the case of “ATAAAATACAAAGGGACACACATATGAGTCTACAAA [CACACA_site3092]” it was 10.6 ± 0.4; in that of “ATATTAACTTTTATTACACACTCTCAACTTTTATTT [CACACA_site6176]”, 9.975 ± 0.021.
In the case of “TCACAAATGTATTATACACACAAGTTTTCTTTAATA [CACACA_site4107]” it was 9.995 ± 0.092.
Turning to “AAGTTATACACATCAACACACACATACAACGTGGTG [CACACA_site8312]”, the “gcPBM binding intensity (ln)” value was 10.4 ± 0.16.
Take “TAAACACATTATATATGTACATAATAAAAAAAAAAA [XGTACX_site7907]”: the “gcPBM binding intensity (ln)” value was found to be 11.2 ± 0.83.
In the case of “TAAAAAAAGAAAAAAAGTACATGCTACTTTTATGAT [XGTACX_site7818]” it was 11.5 ± 1; in that of “TGACGACATTTCTTATGTACTAATTTTTCTTCCTTT [XGTACX_site4391]”, 11.2 ± 0.84; in that of “TAATATATAATAAAGTGTACATATGCTTTATTATTA [XGTACX_site1920]”, 11.2 ± 0.79.
In the case of “CAAAATGATATGACAACACACAACCTATAGTAAGAC [CACACA_site1287]” it was 10.3 ± 0.23; in that of “GTCATTAAAAAAATATGTACTTAAATGTATGCATAT [XGTACX_site5951]”, 11.2 ± 0.71; in that of “TGAATGCTTTTATGCACACGTACAAAAATATTATAT [CACACA_site2668]”, 11.3 ± 0.95.
As to “AATAAAAATAACCTAACATGCAAAAAAAAAAAAAAA [TGCATGCA_site718]”, the “gcPBM binding intensity (ln)” value turned out to be 9.69 ± 0.43.
In the case of “ATGAATATTTACAATCTTATTATGTTCAAAATTAAT [CACACA_negctrl_site592]” it was 9.735 ± 0.064; in that of “TACATGCTTATTTTAACACACAAATGGTAGTAATAA [CACACA_site766]”, 9.97 ± 0.11.
In the case of “GGAATATAAATACATACACACATATATATATATATA [CACACA_site4998]” it was 10 ± 0.23.
